The values that follow are results of earlier work, collected in paper PMC11006913.

This is one part of the list.

Targets include ARX (Homo sapiens) (UniProt Q96QS3); ARX L343Q (Homo sapiens) (UniProt Q96QS3); ARX P353L (Homo sapiens) (UniProt Q96QS3); ARX P353R (Homo sapiens) (UniProt Q96QS3); ARX R332H (Homo sapiens) (UniProt Q96QS3); ARX T333N (Homo sapiens) (UniProt Q96QS3); ISX (Homo sapiens) (UniProt Q2M1V0); ISX R83Q (Homo sapiens) (UniProt Q2M1V0).
Details in all cases: PBM; conditions not shown; double strand, one strand shown; scale: upbm affinity estimate (log intensity, higher = more binding, comparable within an allelic series)
For data set [1], the target named is HOXD13 I322L (Homo sapiens) (UniProt P35453).
The target of data set [2] is PITX2 L100Q (Homo sapiens) (UniProt Q99697).
The target in data set [3] is PITX2 R108H (Homo sapiens) (UniProt Q99697).
Data set [4] has as its target PITX2 R130W (Homo sapiens) (UniProt Q99697).
Data set [5] has as its target PITX2 T114P (Homo sapiens) (UniProt Q99697).
The target of data set [6] is PROP1 R112Q (Homo sapiens) (UniProt O75360).
The target of data set [7] is PROP1 R99Q (Homo sapiens) (UniProt O75360).
Data set [8] concerns the target NKX2-5 K183E (Homo sapiens) (UniProt P52952).
In data set [9] the target is NKX2-5 R161P (Homo sapiens) (UniProt P52952).
The target in data set [10] is NKX2-5 R190C (Homo sapiens) (UniProt P52952).

Sequence of UniProt P35453 (P35453 263-343 I322L): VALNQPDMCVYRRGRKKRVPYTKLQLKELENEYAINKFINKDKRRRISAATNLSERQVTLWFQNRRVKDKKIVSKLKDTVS

Turning to ATCGTTAA [8-mer ATCGTTAA], the binding signal is 11.6 with ARX (Homo sapiens); 10.8 with ARX L343Q (Homo sapiens); 11.6 in the data set with ARX P353L (Homo sapiens); 10.7 with ARX P353R (Homo sapiens); 10.8 with ARX R332H (Homo sapiens); 12.3 in data set [1].

In the case of CTCCCGGC [8-mer CTCCCGGC], the binding signal with ARX (Homo sapiens) was 10; with ARX L343Q (Homo sapiens) it was 10.1; with ARX P353L (Homo sapiens), 10.1; with ARX P353R (Homo sapiens), 10; in the data set with ARX R332H (Homo sapiens) it was 10.1; with ARX T333N (Homo sapiens), 10.2. For the same sequence, the binding signal with ISX (Homo sapiens) is 9.82; in the data set with ISX R83Q (Homo sapiens) it was 9.67.

On to CCGGCGCA [8-mer CCGGCGCA], for which the binding signal was 10.3 with ARX (Homo sapiens); 10.1 with ARX L343Q (Homo sapiens); 10.2 with ARX P353L (Homo sapiens); 10.1 with ARX P353R (Homo sapiens); 10.3 in the data set with ARX R332H (Homo sapiens); 10.2 with ARX T333N (Homo sapiens). The binding signal is 8.17 in data set [2], 7.93 in [3], 7.82 in data set [4] and 7.93 in data set [5].

Take CCGAGGGC [8-mer CCGAGGGC]: the binding signal with ARX (Homo sapiens) is 10; with ARX L343Q (Homo sapiens), 9.96; in the data set with ARX P353L (Homo sapiens), 10.1; with ARX P353R (Homo sapiens), 9.95; with ARX R332H (Homo sapiens), 10.1; in the data set with ARX T333N (Homo sapiens) it was 10.2. The binding signal was 9.9 with ISX (Homo sapiens) and 9.69 with ISX R83Q (Homo sapiens).

Take GGGCCTCA [8-mer GGGCCTCA]: the binding signal in the data set with ARX (Homo sapiens) is 10.2; in the data set with ARX L343Q (Homo sapiens), 9.94; in the data set with ARX P353L (Homo sapiens), 10.2; with ARX P353R (Homo sapiens), 9.94; with ARX R332H (Homo sapiens) it was 9.99; in the data set with ARX T333N (Homo sapiens), 10.2. The values for the binding signal in data set [6] and in data set [7] were 10.9 and 10.8, respectively.

As for AGGCCCCC [8-mer AGGCCCCC], the binding signal was 9.86 in the data set with ARX (Homo sapiens); 9.83 in the data set with ARX L343Q (Homo sapiens); 9.92 with ARX P353L (Homo sapiens); 9.75 in the data set with ARX P353R (Homo sapiens); 9.74 with ARX R332H (Homo sapiens); 9.91 with ARX T333N (Homo sapiens). In addition, the binding signal in the data set with ISX (Homo sapiens) was 9.59; with ISX R83Q (Homo sapiens), 9.75; in data set [2], 8.35; in data set [3], 7.88; in data set [4], 7.79; in data set [5], 7.97.

Take GGGCGCCC [8-mer GGGCGCCC]: the binding signal is 9.95 with ARX (Homo sapiens); 10.1 with ARX L343Q (Homo sapiens); 10 in the data set with ARX P353L (Homo sapiens); 9.97 in the data set with ARX P353R (Homo sapiens); 10.1 in the data set with ARX R332H (Homo sapiens); 10.2 with ARX T333N (Homo sapiens). In addition, the binding signal in data set [2] is 8.03; in data set [3] it was 7.88; in [4], 7.67; in [5], 7.92.

Consider CGGGCTCC [8-mer CGGGCTCC], for which the binding signal was 9.66 in the data set with ARX (Homo sapiens); 9.9 with ARX L343Q (Homo sapiens); 9.83 with ARX P353L (Homo sapiens); 9.87 in the data set with ARX P353R (Homo sapiens); 9.88 with ARX R332H (Homo sapiens); 9.95 with ARX T333N (Homo sapiens). Also, the binding signal was 9.44 with ISX (Homo sapiens); 9.54 with ISX R83Q (Homo sapiens); 7.75 in [2]; 7.81 in data set [3]; 7.76 in data set [4]; 7.83 in data set [5].

As for CCGGTGAC [8-mer CCGGTGAC], the binding signal in the data set with ARX (Homo sapiens) is 10.2; with ARX L343Q (Homo sapiens), 10.2; with ARX P353L (Homo sapiens) it was 10.2; with ARX P353R (Homo sapiens) it was 10.2; in the data set with ARX R332H (Homo sapiens), 10.1; with ARX T333N (Homo sapiens), 10.2. Moreover, the binding signal in [8] was 10.1; in data set [9], 10.1; in data set [10] it was 10.1; in data set [2] it was 8.23; in [3], 8.04; in data set [4] it was 7.97. In addition, the binding signal in data set [5] is 8.08.

For the sequence AATTAGCC [8-mer AATTAGCC], the binding signal is 12.7 in the data set with ARX (Homo sapiens); 10.7 with ARX L343Q (Homo sapiens); 12.3 with ARX P353L (Homo sapiens); 10.6 with ARX P353R (Homo sapiens); 10.7 in the data set with ARX R332H (Homo sapiens); 11.8 in the data set with ARX T333N (Homo sapiens). Besides, the figures for the binding signal (with ISX (Homo sapiens); in the data set with ISX R83Q (Homo sapiens); in data set [7]) were 14.8, 13.4 and 12.1, respectively.

For AGGGGTGC [8-mer AGGGGTGC], the binding signal in the data set with ARX (Homo sapiens) is 10.3; with ARX L343Q (Homo sapiens), 10.3; in the data set with ARX P353L (Homo sapiens), 10.3; with ARX P353R (Homo sapiens), 10.2; with ARX R332H (Homo sapiens), 10.3; with ARX T333N (Homo sapiens), 10.3. For the same sequence, the binding signal in data set [2] was 8.14; in data set [3] it was 8.16; in data set [4], 7.99; in data set [5], 8.2.

For ACCCCCCG [8-mer ACCCCCCG], the binding signal was 10.2 with ARX (Homo sapiens); 10 in the data set with ARX L343Q (Homo sapiens); 10 with ARX P353L (Homo sapiens); 9.86 in the data set with ARX P353R (Homo sapiens); 9.96 with ARX R332H (Homo sapiens); 10.2 with ARX T333N (Homo sapiens). The binding signal is 9.76 with ISX (Homo sapiens) and 9.79 with ISX R83Q (Homo sapiens).
